Hit rate of the full screen: of about 310,000 compounds, about 14,000 (4.5%) showed an effect of 50% or more. Effects have a minus sign here. The list shows a part of the results.
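Also: peak tail current of the secondary pulse compared with the same well before compound.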

human ether-à-go-go-related gene (hERG) potassium channel, sequence (Q12809 whole entry, looked up): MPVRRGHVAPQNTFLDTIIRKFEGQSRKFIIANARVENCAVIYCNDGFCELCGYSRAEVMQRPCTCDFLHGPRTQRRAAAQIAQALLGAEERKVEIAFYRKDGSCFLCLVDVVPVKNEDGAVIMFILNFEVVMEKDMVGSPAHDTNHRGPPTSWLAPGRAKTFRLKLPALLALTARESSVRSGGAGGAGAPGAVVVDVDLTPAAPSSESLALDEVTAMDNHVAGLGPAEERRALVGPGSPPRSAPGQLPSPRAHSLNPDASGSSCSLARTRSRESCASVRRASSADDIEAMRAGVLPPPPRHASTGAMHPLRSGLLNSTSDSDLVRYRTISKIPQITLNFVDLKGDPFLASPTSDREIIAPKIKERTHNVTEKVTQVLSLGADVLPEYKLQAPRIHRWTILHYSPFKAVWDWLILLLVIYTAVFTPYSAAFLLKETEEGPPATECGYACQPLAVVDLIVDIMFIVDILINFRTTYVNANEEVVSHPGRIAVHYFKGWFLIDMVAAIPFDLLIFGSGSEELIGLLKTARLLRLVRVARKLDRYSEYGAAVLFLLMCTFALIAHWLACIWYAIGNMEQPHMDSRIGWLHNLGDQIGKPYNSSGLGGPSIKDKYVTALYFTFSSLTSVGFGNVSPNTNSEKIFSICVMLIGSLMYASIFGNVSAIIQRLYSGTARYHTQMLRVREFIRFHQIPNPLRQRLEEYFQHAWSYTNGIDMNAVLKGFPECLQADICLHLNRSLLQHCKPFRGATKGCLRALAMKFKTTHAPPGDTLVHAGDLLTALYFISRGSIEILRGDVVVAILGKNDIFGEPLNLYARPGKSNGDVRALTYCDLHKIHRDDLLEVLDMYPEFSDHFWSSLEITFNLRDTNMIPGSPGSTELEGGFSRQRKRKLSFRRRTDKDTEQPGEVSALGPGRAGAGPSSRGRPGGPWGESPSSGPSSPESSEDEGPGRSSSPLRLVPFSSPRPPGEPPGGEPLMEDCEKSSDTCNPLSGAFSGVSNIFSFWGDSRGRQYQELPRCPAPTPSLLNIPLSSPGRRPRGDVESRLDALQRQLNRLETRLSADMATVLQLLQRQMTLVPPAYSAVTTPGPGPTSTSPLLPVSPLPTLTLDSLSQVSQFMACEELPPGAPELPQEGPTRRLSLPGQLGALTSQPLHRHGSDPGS

The experiment has as its target human ether-à-go-go-related gene (hERG) potassium channel (human, UniProt Q12809). The experiment can be described thus: primary screen, population patch clamp on CHO cells stably expressing hERG.
On to `O=C(NCCCc1ccncc1)C1CCC(=O)N(CCc2cccc(F)c2)C1` (stereo not shown), for which the “hERG current change (%, negative = inhibition) at 10uM” value was -51.8%.

Consider `O=C(C1=NN[C@@H]2C(=O)N(c3cccc(C(F)(F)F)c3)C(=O)[C@H]12)C(c1ccccc1)c1ccccc1`, for which the “hERG current change (%, negative = inhibition) at 10uM” value is reported as -0.206%.

Take `CN1CCN(S(=O)(=O)c2cccc(C(=O)Nc3sccc3C(N)=O)c2)CC1`: the “hERG current change (%, negative = inhibition) at 10uM” value is on record as -75.4%.

As for `CC(C)=NOc1nc(N(C)C)nc(N(C)C)n1`, the “hERG current change (%, negative = inhibition) at 10uM” value was 4.23%.

On to `Cc1ccc(N2C(=O)NC(=O)/C(=C\c3cnc(-c4ccccc4)nc3)C2=O)cc1`, for which the “hERG current change (%, negative = inhibition) at 10uM” value was 7.17%.

In the case of `O=C(O)C1CCC(=O)N(C2CCCCC2)C1c1ccccc1` (stereo not shown), the “hERG current change (%, negative = inhibition) at 10uM” value worked out at 8.08%.

Regarding `Cc1c2cnn(CC(=O)N3CCC4(CC3)OCCO4)c(=O)c2c(C)n1Cc1ccccc1Cl`, the “hERG current change (%, negative = inhibition) at 10uM” value amounted to 0.64%.

Take `C=CCNC(=O)c1cccn1-c1ccsc1C(=O)OC`: the “hERG current change (%, negative = inhibition) at 10uM” value was 2.87%.

For `CCCc1cc(C(=O)N2CCCC(Cc3ccccc3C)(C(=O)OCC)C2)no1` (stereo not shown), the “hERG current change (%, negative = inhibition) at 10uM” value is given as -40.7%.

For `CSc1ccc(/C=C(/NC(=O)c2ccco2)C(=O)N2CCCCCC2)cc1`, the “hERG current change (%, negative = inhibition) at 10uM” value was -26.2%.

As for `O=C(NCC1CC1)[C@]1(C(F)(F)F)C[C@H](CCC2CCCCC2)CCCO1`, the “hERG current change (%, negative = inhibition) at 10uM” value stood at 7.76%.

`COc1cc(/C=C(/C(=O)c2cccs2)c2nc3ccccc3[nH]2)cc(OC)c1O`: the “hERG current change (%, negative = inhibition) at 10uM” value is -56.1%.

Consider `O=C(Cc1cccs1)N(c1ccc(F)cc1)C1(C(=O)NC2CCCCC2)CCCC1`, for which the “hERG current change (%, negative = inhibition) at 10uM” value stood at 13.6%.

With `O=C(NCCC1CCCCN1S(=O)(=O)c1ccccc1)C(=O)NCc1cccnc1` (stereo not shown), the “hERG current change (%, negative = inhibition) at 10uM” value is listed as -3.45%.

For the molecule `Cc1cccc(NC(=O)C2CC(=O)N(Cc3ccccc3)C2)n1` (stereo not shown), the “hERG current change (%, negative = inhibition) at 10uM” value turned out to be 15.7%.

Take `CCCCn1c(N)c(N(CCOC)C(=O)C(C)N2C(=O)c3ccccc3C2=O)c(=O)[nH]c1=O` (stereo not shown): the “hERG current change (%, negative = inhibition) at 10uM” value amounted to 5.02%.

Take `CCc1nc(-c2ccccc2)cc(=O)[nH]1`: the “hERG current change (%, negative = inhibition) at 10uM” value is listed as -6.29%.

In the case of `COc1cc(CN(C)Cc2cc(=O)oc3cc(C)c(Cl)cc23)ccc1OC(F)F`, the “hERG current change (%, negative = inhibition) at 10uM” value amounted to 12%.

For `Cc1ccc(S(=O)(=O)N2CCN(CC(=O)N/N=C\c3ccccn3)CC2)cc1`, the “hERG current change (%, negative = inhibition) at 10uM” value is listed as -36.3%.

For the molecule `CC(C)c1cc(CNC(=O)CC2C(=O)NCCN2CC2CCCCC2)on1` (stereo not shown), the “hERG current change (%, negative = inhibition) at 10uM” value is listed as 11.2%.

On to `COc1cc(CNCCCCO)ccc1OCc1ccccc1F.Cl`, for which the “hERG current change (%, negative = inhibition) at 10uM” value was -14.2%.

Turning to `Cc1cc(C)n2c(SCc3ccc(C#N)cc3)nnc2n1`, the “hERG current change (%, negative = inhibition) at 10uM” value was -32.5%.

On to `Clc1ccc(-c2nc3nc4ccccc4nc3n2Cc2ccco2)cc1`, for which the “hERG current change (%, negative = inhibition) at 10uM” value was -12.3%.

As for `COc1ccc(N2CCOCC2)c(NC(=O)c2ccco2)c1`, the “hERG current change (%, negative = inhibition) at 10uM” value is -73.1%.

Turning to `COc1ccc(Nc2nnc(C)c3ccccc23)cc1C(N)=O`, the “hERG current change (%, negative = inhibition) at 10uM” value is on record as 12.2%.

Consider `CCc1noc2c1/C(=N\O)CC(c1ccccc1)C2` (stereo not shown), for which the “hERG current change (%, negative = inhibition) at 10uM” value is given as 4.82%.

Consider `CCCn1c(SCC(=O)Nc2nc(-c3ccc(OC)cc3)cs2)nc2c1c(=O)n(C)c(=O)n2C`, for which the “hERG current change (%, negative = inhibition) at 10uM” value was 2.71%.

For `COc1ccc(C)cc1N/C(N)=N/c1nc(C)cc(C)n1`, the “hERG current change (%, negative = inhibition) at 10uM” value is reported as -74.4%.

As for `Cc1cccc(N2CCN(C(=O)Cn3cccc3C(=O)c3ccccc3)CC2)c1C`, the “hERG current change (%, negative = inhibition) at 10uM” value is -17.2%.

In the case of `O=C(NCc1ccco1)N1c2ccccc2Sc2ccccc21`, the “hERG current change (%, negative = inhibition) at 10uM” value is on record as -3.6%.

As to `COCCCn1c(SCC(=O)Nc2ccc(C(=O)OC)cc2)nc2ccccc2c1=O`, the “hERG current change (%, negative = inhibition) at 10uM” value was -25.6%.

For `O=S1(=O)N=C(N2CCCc3ccccc32)c2ccccc21`, the “hERG current change (%, negative = inhibition) at 10uM” value was -8.39%.

Turning to `COc1cc(C2NC(=O)NC(C)=C2C(=O)OCC2CCCCC2)cc(Cl)c1O` (stereo not shown), the “hERG current change (%, negative = inhibition) at 10uM” value was found to be 5.43%.

In the case of `C/C(=N/NC(=O)CSc1nc2ccccc2n1C)c1ccncc1`, the “hERG current change (%, negative = inhibition) at 10uM” value came to 8.51%.

Take `C=CCn1c(SCC(=O)NC(=O)Cc2ccccc2)nc2ccccc2c1=O`: the “hERG current change (%, negative = inhibition) at 10uM” value stood at 6.59%.

As to `CCOC(=O)C(NC(=O)c1ccc(OC)cc1)(N1CCOCC1)C(F)(F)F` (stereo not shown), the “hERG current change (%, negative = inhibition) at 10uM” value came to 12.8%.

For `NC(=O)N/N=C(/CCCCCC/C(=N\NC(N)=O)c1ccccc1)c1ccccc1`, the “hERG current change (%, negative = inhibition) at 10uM” value was -10.5%.

In the case of `CCOc1ccc(NC(=O)CNC(=O)c2cccs2)cc1`, the “hERG current change (%, negative = inhibition) at 10uM” value is 12.1%.

For `CCCCC1CCC(C(=O)Nc2ccccc2N2CCOCC2)CC1` (stereo not shown), the “hERG current change (%, negative = inhibition) at 10uM” value is given as -34.3%.

In the case of `CCCCOc1ccc2c(c1)/C(=C(\C(Cl)=C(Cl)Cl)[N+](=O)[O-])N2`, the “hERG current change (%, negative = inhibition) at 10uM” value was found to be 27%.

As for `COc1cccc(NC(=O)CC2(CC(=O)O)CCCC2)c1`, the “hERG current change (%, negative = inhibition) at 10uM” value was -39.8%.

Consider `COc1ccc(C(=O)c2c(C(F)(F)F)oc3c2C(=O)c2ccccc2C3=O)cc1OC`, for which the “hERG current change (%, negative = inhibition) at 10uM” value was -2.82%.

Take `CCN1CCN(CCCNC(=O)c2ccc(NC(=O)C3=CSCCO3)cc2)CC1`: the “hERG current change (%, negative = inhibition) at 10uM” value is 19.9%.

For `COC(=O)c1cccc(NC(=O)CSc2nc(O)c(-c3ccccc3)c(=O)[nH]2)c1`, the “hERG current change (%, negative = inhibition) at 10uM” value is 11.2%.

Consider `Cc1noc(C)c1CSCC(=O)Nc1cc(S(=O)(=O)N2CCCCC2)ccc1OC(C)C`, for which the “hERG current change (%, negative = inhibition) at 10uM” value is -18.5%.

`CCOc1ccc(-c2csc(C3COc4ccccc4O3)n2)cc1` (stereo not shown): the “hERG current change (%, negative = inhibition) at 10uM” value was -3.91%.

In the case of `COc1cccc(-n2c(=O)[nH]cc(C(=O)Nc3ccc4c(c3)OCCO4)c2=O)c1`, the “hERG current change (%, negative = inhibition) at 10uM” value was 4.33%.

Turning to `COC(=O)c1ccc(C(=O)NN)cc1`, the “hERG current change (%, negative = inhibition) at 10uM” value is listed as 19.2%.

As for `O=C1NC2(CCCCC2)N(C(=O)c2ccccc2)C2=C1CCCC2`, the “hERG current change (%, negative = inhibition) at 10uM” value turned out to be 38%.

With `Cc1ccc(Oc2ncccc2C(=O)NC2CCSC2=O)cc1` (stereo not shown), the “hERG current change (%, negative = inhibition) at 10uM” value is -6.68%.

Take `CCOC(=O)[C@H]1[C@H]2COc3ccc(Cl)cc3[C@@H]2N2C(=O)c3cc(OC)ccc3NC(=O)[C@@]12C`: the “hERG current change (%, negative = inhibition) at 10uM” value was -12.6%.

As to `N#Cc1cnn2ccc(-c3cc(N4CCOCC4)ccc3[N+](=O)[O-])nc12`, the “hERG current change (%, negative = inhibition) at 10uM” value is listed as -1.59%.

Take `O=C(Cc1coc2cc3c(cc12)CCC3)OCC(=O)N1CCCC1=O`: the “hERG current change (%, negative = inhibition) at 10uM” value was -9.84%.

Regarding `CCOC(=O)c1cnc(SCC(=O)N2CCN(C(=O)c3ccco3)CC2)nc1N`, the “hERG current change (%, negative = inhibition) at 10uM” value was -29.3%.

In the case of `Cc1noc(C)c1C(=O)Nc1nccs1`, the “hERG current change (%, negative = inhibition) at 10uM” value is 18.6%.

The record behind these values is article PMC4336329 (PLoS ONE, 2015).
